# Measured values reported in PubChem BioAssay AID624173 (National Center for Advancing Translational Sciences (NCATS), 2012).
# In all, about 410,000 compounds went through this assay and about 490 (0.12%) were called active. Inconclusive results, whose numbers are uncertain, are shown with a selection of clear calls. The call rests on the fitted dose curve; in most records, active means well fitted inhibition curve with a large enough effect; inconclusive means small, poorly fitted or top-dose-only effect; inactive means flat fitted curve, though single readings scatter. Potencies beside an inconclusive call are fits to weak or partial responses and may not hold up.
# Molecular target: pyruvate kinase (Trypanosoma brucei) (UniProt Q57TT1)
# Experiment: qHTS of Trypanosoma Brucei Inhibitors; further: nearly all actives have a fitted effect of over 50% in size
# Conditions: TbPYK enzyme, Kinase-Glo Plus ATP luminescence, 45 min; series mostly up to 76.8 µM
# How it was run: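 Luminescent Kinase-Glo Plus end-point after 45 min room-temperature reaction of T. brucei pyruvate kinase started with 130 uM ADP (final). Buffer TEA 50 mM pH 7.2 with KCl, MgCl2, BSA, Tween-20; titration-based qHTS with fitted concentration-effect curves.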
# Potency means the concentration at half of the fitted maximal effect; tags describe the fitted curve by direction and shape.
row,Compound,Potency
1,CCCC(=O)Nc1ccc(NC(=O)CCc2ccccc2)cn1,"inconclusive: 39.8 µM [inhibitor, single point]"
2,CSc1ncccc1C(=O)OCC(=O)c1cccc(Br)c1,inactive
3,CN(C)/C=C1\NC(=S)N(c2ccccc2)C1=O,"inconclusive: 5.62 µM [inhibitor, partial curve, poor fit]"
4,Clc1ccccc1Cn1cccc1C1=NC(Cc2ccccc2)CO1 (stereo not given),inactive
5,Cc1cccc(NC(=O)NNC(=O)CCc2ccccc2)c1,inactive
6,O=C(NCCOCCO)C(=O)Nc1c2c(nn1-c1ccc(F)cc1)CSC2,inactive
7,O=C1NC(=O)C(=Cc2coc3ccc(O)cc3c2=O)C(=O)N1,"inconclusive: 28.2 µM [inhibitor, partial curve]"
8,CC(=O)/C(N=Nc1cc2c(cc1[N+](=O)[O-])OCCO2)=C(\C)O,"inconclusive: 28.2 µM [inhibitor, partial curve, poor fit]"
9,CCCc1c(C)[nH]c2ccc(C(=O)O)cc2c1=S,"inconclusive: 2 µM [inhibitor, full curve, poor fit]"
10,Cc1cccc(-n2c(Cc3ccccc3)n[nH]c2=S)c1,"inconclusive: 15.8 µM [inhibitor, partial curve, poor fit]"
11,S=c1[nH]nc(COc2cccc(Cl)c2)n1Cc1ccccc1,"inconclusive: 14.1 µM [inhibitor, partial curve]"
12,NNC(=S)Nc1c(Br)cc(F)cc1Br,"inconclusive: 39.8 µM [inhibitor, single point]"
13,Cc1ccccc1-c1noc(-c2ccccc2C(=O)O)n1,inactive
14,CCCOc1ccc(C(C)=O)cc1Cc1c(O)[nH]c(=S)[nH]c1=O,"inconclusive: 28.2 µM [inhibitor, partial curve]"
15,CC(C)c1nc(-c2ccc([N+](=O)[O-])cc2)cs1,inactive
16,COc1ccc(NC(=O)C2=C(C)C(=O)OC23CCN(C(C)C)CC3)cc1Cl,inactive
17,COC(=O)C1CN(C(=O)COc2ccccc2C)c2ccccc2O1 (stereo not given),inactive
18,COc1ccc(C(=O)O/N=C(\C)c2nccs2)cc1,"inconclusive: 39.8 µM [inhibitor, single point]"
19,COc1ccc2[nH]c3c(=O)n(CCCCC(=O)NCCN4CCCC4)c(=S)[nH]c3c2c1,active: 6.31 µM
20,FC(F)(F)c1ccccc1NC(=S)NN=C1CCCCCC1,"inconclusive: 25.1 µM [inhibitor, partial curve, poor fit]"
21,O=C1C2C3C=CC(C3)C2C(=O)N1c1ccccc1 (stereo not given),inactive
22,CCOc1ccccc1OCc1nn2c(COc3ccccc3)nnc2s1,"inconclusive: 28.2 µM [inhibitor, partial curve, poor fit]"
23,O=C1/C(=C/c2ccc(Br)cc2)Oc2cc(O)ccc21,inactive
24,O=C1c2cccc(NCCCNCCO)c2C(=O)c2cccc(NCCCNCCO)c21,"inconclusive: 50.1 µM [inhibitor, single point]"
25,COc1ccc(C/C(C)=N/NC(=S)Nc2ccc(C)c(C)c2)cc1,"inconclusive: 10 µM [inhibitor, partial curve]"

row,Compound,Potency
1,Cc1ccccc1N(C)C(=O)c1noc2c1COc1ccccc1-2,"inconclusive: 17.8 µM [inhibitor, partial curve, poor fit]"
2,O=C(c1ccco1)N1CCN(c2ccc(N3CCCCC3)nn2)CC1,inactive
3,Cc1c(C(=O)OCC(C)C)[nH]c2c1C(=O)CC(c1ccco1)C2 (stereo not given),inactive
4,CCn1c(=O)c2c(n3c(=S)[nH]nc13)-c1ccccc1CC21CCCCC1,"inconclusive: 2.51 µM [inhibitor, full curve, poor fit]"
5,N#C/C(=C\c1ccc(O)c(O)c1)C(=O)c1ccc(O)c(O)c1,"inconclusive: 25.1 µM [inhibitor, partial curve, poor fit]"
6,CC(/C=N/n1c(-c2ccccc2)n[nH]c1=S)=C\c1ccco1,"inconclusive: 2 µM [inhibitor, full curve]"
7,CCC(C)c1ccc(O)c(N)c1 (stereo not given),"inconclusive: 20 µM [inhibitor, partial curve, poor fit]"
8,CSc1ccc(/C=N/n2c(C3CCCCC3)n[nH]c2=S)cc1,"inconclusive: 2.24 µM [inhibitor, partial curve, poor fit]"
9,S=c1[nH]nc(-c2ccco2)n1/N=C/c1ccc(Cl)cc1Cl,"inconclusive: 0.891 µM [inhibitor, full curve, poor fit]"
10,CN1C(=O)SC(Nc2ccccc2)C1=O (stereo not given),inactive
11,CCC(=O)Oc1ccc(-c2cnc3ccccc3n2)cc1,"inconclusive: 35.5 µM [inhibitor, single point]"
12,O=C1C=CC(=O)N1c1ccc2c(c1)Cc1cc(F)ccc1-2,"inconclusive: 2.82 µM [inhibitor, full curve, poor fit]"
13,Cc1ccc2sc(N(CCCN(C)C)C(=O)c3ccco3)nc2c1C,inactive
14,CN(C)S(=O)(=O)c1ccc(Cl)c(NC(=O)C2CCN(S(=O)(=O)c3cccs3)CC2)c1,inactive
15,N=C1C=CC(=C(c2ccc(N)cc2)c2ccc(N)cc2)C=C1,"inconclusive: 28.2 µM [inhibitor, single point]"
16,C[C@H](CO)N1C[C@H](C)[C@@H](CN(C)Cc2ccccc2)OCCCC[C@H](C)Oc2ccc(N(C)C)cc2C1=O,"inconclusive: 31.6 µM [inhibitor, single point]"
17,Cc1ccc(-n2c(-c3ccc(Cl)cc3)n[nH]c2=S)cc1,"inconclusive: 3.16 µM [inhibitor, full curve, poor fit]"
18,COc1ccc(NC(=O)Cn2nnnc2-c2ccccc2F)c(C)c1,inactive
19,CC(C)CC(=O)Nc1ccc(Nc2ccccc2)cc1,inactive
20,COC(=O)c1ccccc1NC(=O)c1cc2ccccn2n1,inactive
21,Cc1[nH]c2ccccc2c1C(c1ccccn1)N1CCCC1 (stereo not given),inactive
22,O=C(Cn1c2[n+](c3ccc(C(F)(F)F)cc31)CCCCC2)Nc1ccccc1,inactive
23,CN1CCN(c2cc(=O)n(Cc3ccc(F)cc3)c(=O)[nH]2)CC1,"inconclusive: 31.6 µM [inhibitor, single point]"
24,COC(=O)c1ccccc1NC(=S)NC(NC(=O)c1ccco1)C(Cl)(Cl)Cl (stereo not given),"inconclusive: 50.1 µM [inhibitor, partial curve, poor fit]"
25,CCOC1=CC2=C(C(=O)C(Cl)=CC2=O)[C@@H]2CN(S(=O)(=O)c3ccc(C)cc3)[C@@H](c3ccccc3)[C@H]12,active: 2.51 µM

row,Compound,Potency
1,CCOC(=O)NC1(NCc2ccccc2)Oc2ccccc2O1,inactive
2,O=c1c(Cl)c(NCCCO)cnn1-c1nc2ccccc2[nH]1,"inconclusive: 28.2 µM [inhibitor, single point]"
3,OC1(c2ccc(Br)cc2)CCNCC1,inactive
4,COc1ccc(CCNC(=O)C(=O)NCC(c2ccco2)S(=O)(=O)c2cccs2)cc1 (stereo not given),inactive
5,Cn1c(SCC(=O)O)nnc1-c1cccc(NC(=O)c2cccc3ccccc23)c1,"inconclusive: 28.2 µM [inhibitor, partial curve, poor fit]"
6,Cc1ccccc1CSCC1Nc2ccc(C(=O)NCCc3ccccc3)cc2NC1=O (stereo not given),"inconclusive: 28.2 µM [inhibitor, single point]"
7,CC[C@H](C)NC(=O)c1ccc(Cn2c(=S)[nH]c3c([nH]c4ccc(OC)cc43)c2=O)cc1,"inconclusive: 3.98 µM [inhibitor, partial curve, poor fit]"
8,O=C(NCCCN1CCc2ccccc2C1)Nc1ccc(Br)cc1,inactive
9,S=c1[nH]nc(COc2ccccc2)n1/N=C/C=C/c1ccco1,"inconclusive: 0.794 µM [inhibitor, full curve, poor fit]"
10,O=C(O)c1ccc(CSc2nnc(-c3cccnc3)n2-c2ccc(Br)cc2)cc1,"inconclusive: 8.91 µM [inhibitor, partial curve]"
11,COC(=O)/C=C\C(=O)Nc1cccc([N+](=O)[O-])c1,"inconclusive: 31.6 µM [inhibitor, partial curve]"
12,COc1ccc(C(=O)ON=C(C)c2nccs2)cc1,"inconclusive: 25.1 µM [inhibitor, partial curve, poor fit]"
13,CCOc1ccc2c(c1)C(C)=CC(C)(C)N2,"inconclusive: 31.6 µM [inhibitor, single point]"
14,CCOC(=O)CSc1cc(CS(=O)c2ccc(Cl)cc2)nc(-c2ccccc2)n1 (stereo not given),inactive
15,Cc1ccc(C2CN=NC23CCc2ccccc2C3=O)cc1 (stereo not given),inactive
16,CCCCc1nnc(NC(=O)CSCc2cc(=O)n3cc(C)sc3n2)s1,inactive
17,Cn1c(SCC(=O)c2cc(Cl)c(Cl)s2)nnc1-c1ccco1,"inconclusive: 28.2 µM [inhibitor, partial curve, poor fit]"
18,N#Cc1ccccc1NC(=O)COc1ccccc1C(=O)Nc1ccccc1,inactive
19,C/C(=N\NC(=O)COc1ccccc1-c1ccccc1)c1cccnc1,inactive
20,CCOc1ccccc1CN1CCc2nc(N3CCN(C)CC3)ncc2C1,inactive
21,Cc1ccnc(NC(=O)CCC(=O)N(CC(=O)NCc2ccccc2)c2ccc3c(c2)OCO3)c1,"inconclusive: 50.1 µM [inhibitor, single point]"
22,Cc1ccccc1NC(=S)NC(=O)c1cncc(Br)c1,inactive
23,CCOc1ccc(CC(=O)NC2CC(C)(C)N(C)C(C)(C)C2)cc1OCC,inactive
24,Cc1ccc(C(=O)NCc2n[nH]c(=S)n2-c2ccccc2)cc1[N+](=O)[O-],"inconclusive: 11.2 µM [inhibitor, partial curve, poor fit]"
25,CN(C)c1ccc(N/C=C/C(=O)c2ccco2)cc1,"inconclusive: 28.2 µM [inhibitor, partial curve, poor fit]"
